Whole data set: some 81,000 sequences, median “one-hybrid fitness for binding NBS DNA” near -0.1, cut for the highest 2% near 0.36. Some of the results follow.
B1: Caulobacter ParB omega fusion; a variant is named by its letters at X, in order, B8GW30 (parent)
chain: MESVVVGEPGMSEGRRGLGRGLSALLGEVDAAPAQAPGEQLGGSREAPIEILQRNPDQPRRTFREEDLEDLSNSIREKGVLQPILVRPSPDTAGEYQIVAGERAWRAAQRAGLKTVPIMVRELDDLAVLEIGIIENVQRADLNVLEEALSYKVLMEKFERTQENIAQTIGKSXSHVANXMRLLXLPDEVQSYLVSGELTAXHARAIAAAADPVALAKQIIEGGLSVRETEALARKAPNLSAGKSKGGRPPRVKDTDTQALESDLSSVLGLDVSIDHRGSTGTLTITYATLEQLDDLCNRLTRGI

Variants of: B1
Assay: one-hybrid fitness for binding NBS DNA (the Noc-binding site; scaled: cognate 1, non-cognate 0); higher = stronger binding
Conditions: with NBS DNA site
Outline: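 On M9-minus-histidine containing 0.1 mM IPTG and 5 mM 3-AT, E. coli USO cells with a HIS3 reporter, site 19 bp from the promoter, grew 48 hours at 37°C to select Caulobacter ParB libraries randomised at four specificity codons. Plasmids from before and after were Illumina-sequenced, with three replicate libraries pooled and variants under 10 reads left out. Fitness is the log change in variant-to-wild-type read ratio, rescaled against cognate and non-cognate.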

one-hybrid fitness for binding NBS DNA, 0.251:
TRAE

one-hybrid fitness for binding NBS DNA, 0.484:
RANS

one-hybrid fitness for binding NBS DNA, 0.219:
TRLT

one-hybrid fitness for binding NBS DNA, 0.248:
QHPR

one-hybrid fitness for binding NBS DNA, 0.599:
QCCR

one-hybrid fitness for binding NBS DNA, ≤ 0.2:
EYPS
MPYC
TTME
RHMM
PHPP
VDMI
RWCW
IKPI
IKSE
SVVY
LRFG
MQDN
MSPD
TRHL
GEHT
PRIY
ITPS
KMIT
RHDV
NNQG
DGWM
FFTN
SNLV
DQAI
NIQT
QKVV
ISTQ
SSVL
SSMS
RFPC
GPYS
KAGW
CMYM
VEWS
FVLF
QGSS
RKFD
RIIK
EVQI
WHQG
DHPT
ENDM
RMPC
FRWC
TRMY
VSQK
PHFS
GTEL
AYRH
IGHD
AVRG
GRVH
PGDT
IKAF
LSQR
VPYN
PPSL
WSRD
TLCI
QGYR
YRRF
RIAP
NAEM
GSMQ
DVIS
PDHP
QILA
PIPC
NTHE
NKLF
RDRG
FGEY
GQAC
NDHY
VHDR
RAMP
KANF
KCSY
HRTE
HEQL
CTSH
FDSS
TFQE
LEVS
RNIS
SSHY
TTQF
ANQE
PNCS
LCHM
HETY
EEKS
NFKC
DLDC
SSGW
GPRA
LPTI
DDSG
CPGM
CYTA
MENS
TNRM
QWHT
HNTC
ATHT
YMTC
CKAS
CQES
PYSE
LCTW
IHLL
NGAS
QHQH
SESC
SKKC
HAKW
FKPS
ALHC
DNES
WMTP
GNMR
YYLC
ADCT
LNER
REAT
RQVK
IGTM
ERMS
VKRH
ADIG
AVDA
SASA
METV
DNRA
TRET
DNGT
TCDP
LGLY
NPST
QLFY
SLRE
CQQT
MHRS
RSQV
WEHT
HSQM
HPLF
LKDR
CALH
GMDV
TPRY
SIPD
NHQR
NTCL
RKCE
SLAM
SLTN
ISRI
TTER
EYAC
HDLM
YKRW
APPG
TRVI
RMIF
KAWS
RIWC
LFNC
YEVP
QIVN
SHRV
SMHN
LIYC
NDTI
QVTF
QREL
VDFS
EGVG
HQSL
DFSH
ITPM
HWGA
NTMG
PIVG
KLNI

one-hybrid fitness for binding NBS DNA, 0.409:
RMRA

one-hybrid fitness for binding NBS DNA, 0.666:
RKTT

one-hybrid fitness for binding NBS DNA, 0.443:
RLGR

one-hybrid fitness for binding NBS DNA, 0.284:
QQAH

one-hybrid fitness for binding NBS DNA, 0.397:
QIAR

Reference: a collection of fitness landscapes (doi:10.1016/j.celrep.2020.107928)
